Assay results as given in the supplement of paper PMC11417369.
± gives the standard deviation of the averaged measurements. The list shows a part of the results.

The sequences below were run on PfAP2-G AP2 domain (GST-tagged) (assay: gcPBM binding intensity (ln(normalized median fluorescence intensity)); higher = stronger DNA binding).
Procedure, shortened: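 Binding of GST-tagged P. falciparum DNA-binding domains, expressed in E. coli and used at about 25 μg on average, was carried out for 1 h in 1× PBS containing 1% milk, 0.2 mg/ml BSA, 0.5% salmon testes DNA and 0.03% Triton X-100. The target was an Agilent 4 × 180k array of primer-extended double-stranded 36-bp intergenic genomic probes plus negative controls, read with Alexa488 anti-GST antibody at 488 nm. Binding intensity is the highest Masliner-normalised natural-log median intensity across replicate spots of either probe orientation.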

Sequence	gcPBM binding intensity (ln)
ATATAAGAAAAGCACACACACACAAAAAAAAAAAAA [CACACA_site2827]	10.1 ± 0.43
TAGCCATTTTTATATTGTACTTATATAATCACATTT [XGTACX_site4407]	11.3 ± 0.84
ATAAAAAAAAATAACACACAGACATAAGAATAAATA [CACACA_site4162]	10.01 ± 0.014
TGAAAAAAAAAATACACACACGAGTTGTTATACATA [CACACA_site7486]	9.79 ± 0.15
GTTTTTAATGTTTTGACATGCAATATTAAAAATAAT [TGCATGCA_site174]	9.95 ± 0.2
AACAGATATGAATAGAAAAAAAAAAATGGCCCATAT [TGCATGCA_negctrl_site443]	10.2 ± 0.2
ATTAAAAAAATTGGCACACATAAAAATATATAAAAA [CACACA_site2748]	10.3 ± 0.39
CCTATTATTTCTAAAACACACAAAAATATAAAAGAA [CACACA_site2708]	10.2 ± 0.14
ATAATATTATTTAAAAGTACTAACAAAAGAATATTA [XGTACX_site4989]	11.2 ± 0.67
TCTTTTTTTTATTATATCATTGAAATGTTAAAACGA [XGTACX_negctrl_site473]	9.91 ± 0.12
TATAATGATAATAATAGTACACATTAGAACGGGAGG [XGTACX_site2563]	11.3 ± 0.66
TATAATAATAAAAACACACACGTTGATTGTATTAGC [CACACA_site5336]	9.87 ± 0.057
TTTTGATAGAAGTGTTCTAGGAATTCAACTGTAATA [GTGCAC_negctrl_site585]	10 ± 0.15
CAGCTCTTAAGAATTACACACATATACACATATATA [CACACA_site7524]	9.91 ± 0.11
ATACATAAATACAAACGTACATACATACATACATAC [XGTACX_site7824]	11.2 ± 0.67
GCAACACAAAAAATTACACACAAAAAAAATATATTA [CACACA_site916]	9.94 ± 0.13
TCCTTTATTTTTAAAGTGCATATACATGTACATTAT [GTGCAC_site9445]	11 ± 0.69
GAAGAAAAAAAATATACACACATACGATCATACATA [CACACA_site5227]	10.06 ± 0.035
TTTTAATGTACCAGTGTGCACCTTGCGTACATATTA [GTGCAC_site9957]	11.6 ± 0.97
ATTCAAAAGATGTATACACACATGTGTATAATATAA [CACACA_site7197]	10.28 ± 0.085
AATAATATATATATAATACACACTATTATAATCACA [CACACA_site1310]	9.93 ± 0.13
TTGGCATACGGACACACACACACACCCAGACATATA [CACACA_site4492]	11.2 ± 0.88
AATAATAAAAAATATACACACATATATATATATATA [CACACA_site25]	10 ± 0.4

Sequence	gcPBM binding intensity (ln)
AAAAAAAAAAAAAAATGTACATATGGTATGCATATA [XGTACX_site3225]	11.1 ± 0.64
GCTTATAAAGGCAGAAGTACTGTATTCCTATATATA [XGTACX_site8865]	11 ± 0.53
AAAATATATACTCCATCACACACCAAAAAGAAAAAA [CACACA_site2542]	10.2 ± 0.38
TTATACAAATTCATGGGTACAAACAAACATATATCA [XGTACX_site6237]	11.1 ± 0.72
TATACCTATAAATACACACACATATAAATAAATATA [CACACA_site6153]	10.05 ± 0.071
ACGTGATAAATAAATACATGCATAGAAAGATGCATA [TGCATGCA_site91]	9.75 ± 0.071
TATATATATATATATTGTACTAGTGCATATATATAC [XGTACX_site7926]	10.9 ± 0.45
TTTAAATATTTTAATACACACACGATATGTACAAAA [CACACA_site4455]	11.2 ± 0.76
TACAATGAAAAAATAACATGCAATTATATTTCTCTT [TGCATGCA_site833]	9.43 ± 0.28
AATTTTGTTGAGCACACACACATACATACATACATA [CACACA_site3154]	10.4 ± 0.25
AAATATATTTTATTTTGTACTTATGTATAAAATATA [XGTACX_site914]	11.1 ± 0.82
ATAACATATTTCTTTTGTACTCAAAATAAAATTAAT [XGTACX_site2479]	11.4 ± 1.1
ATTAAATTTCCTTGAGTGCACATTTTGTTAAAATAT	10.5 ± 0.3
GTGCCATTTAAAAAATGTACAAGAAAATGTTCATCA [XGTACX_site2865]	10.8 ± 0.33
TGGTATTGAATTTTTTGTACACATAAAATATATATA [XGTACX_site7614]	11.2 ± 0.88
TATTTTAATTTTTTTTTGTTTTTTCTAATACATGTA [CACACA_negctrl_site1399]	9.605 ± 0.049
TTTTTTTTGGTATAATGTACATTTTCACTTATGTAT [XGTACX_site3259]	10.9 ± 0.44
ATTTTATTTTCTCACACACACATATATATATATATA [CACACA_site5781]	10.3 ± 0.47
ACATATGTTAAAAAGGCATGCATTCTTTTTATTTTA [TGCATGCA_site1043]	9.66 ± 0.11
ACCAAAAAAAAAAAAAAAAAAATATACATATATATA [GTGCAC_negctrl_site582]	9.57 ± 0.23
TATTTTCCCTCCATATGTACTTAATTATAAGCACAT [XGTACX_site4000]	11.2 ± 0.89
TATATATCGCATAAAACACACAAAAAAAAAATTAAA [CACACA_site7767]	9.94 ± 0.21
ATATATATCTTTTGTGTGCACATATATATAATATAT	10.5 ± 0.35

Sequence	gcPBM binding intensity (ln)
AAAAAAAAAATATACACACACACATACACATAAATA [CACACA_site3808]	10.14 ± 0.092
TTATATTCTATTTATTGTACTTAAATATATATATAT [XGTACX_site6400]	11.2 ± 0.95
ATTTCATTTATAAGGATATCTACTTTTTATTTTAAT [GTGCAC_negctrl_site59]	9.915 ± 0.049
AAACGAAAAAAATGGTGTACATTAAAATGAAAATTG [XGTACX_site7040]	11.5 ± 0.88
TCTATCTTTTCCAAACGTACATTTTTTATATAAATT [XGTACX_site5352]	11.1 ± 0.58
CACCAAACTAAATGTACACACATACATAAATATAAA [CACACA_site4765]	11.3 ± 0.88
AAAAACAAAAAAAAAACACACAATTCTAGTTATTTT [CACACA_site2767]	9.61 ± 0.23
ACTTTATTTTCCTGTACACACATTTGACATATTAAA [CACACA_site3378]	11.6 ± 0.94
TTTTTTATTTTATTTTATTTTTATTTTTTTTTTTTT [GTGCAC_negctrl_site596]	9.54 ± 0.085
AACATTATTTTGTGTACACATTCGGTTATATTATAT [CACACA_site5628]	11.8 ± 1
AAAAAAAAGAAACACACACACATACACATAAATATA [CACACA_site3807]	10 ± 0.057
ATATTTTTTTCATAGACACACACAATATATCTGTTT [CACACA_site8993]	9.94 ± 0.057
TTTTTTTTCCTAATGTGTACTAAAAATGAACAATAA [XGTACX_site5248]	11.4 ± 0.99
AGTTTTTACTCTAATGGTACAGTGCAACTAATAAAT [XGTACX_site6950]	10.9 ± 0.61
TAAACATAAATATGCACACATATACAGATATTCATA [CACACA_site5471]	9.825 ± 0.035
TTTTACTTAAGACACACACACACAAAAAAAAAAAAA [CACACA_site6573]	10.1 ± 0.59
ATAAAATACATATAAACACACATATAAACCGACATA [CACACA_site2477]	9.97 ± 0.071
TAAGTATACACATACACACACACACTAAAAAAAAAA [CACACA_site6337]	10.2 ± 0.35
TTTATGTAAAAATATAGTACATATTAAAAGATAAGA [XGTACX_site8134]	11.2 ± 0.8
ATATATTCCATAAAGGTGCTGTTAACGTGTCAACGT [GTGCAC_site9402]	10.1 ± 0.14
AAAAAATATAAAAAAAGTACACAAAAACTACAAAAA [XGTACX_site2677]	11.6 ± 1
TTTAATCATTTTATTTGTACTCATAAAAAATATAAT [XGTACX_site5537]	11.3 ± 1
AAAAAGAGGAAAAAGATAAAGAAATTAAAGGAGAGA [CACACA_negctrl_site423]	9.775 ± 0.049

Sequence	gcPBM binding intensity (ln)
TATCATTGTTCATGCTTGCACTTTTGTTACTGTTCC [GTGCAC_site9425]	10.16 ± 0.014
GAAAATTTATATTGCACACATAGGGAATAAAAAAAA [CACACA_site2146]	10.2 ± 0.11
TGTATGAAAATAAATGCATGCCAAATATATATATAT [TGCATGCA_site132]	9.94 ± 0.33
AAAATGAAATATGTTATATATATATATATATATATA [CACACA_negctrl_site1752]	9.94 ± 0.69
TCTGTAAACATATTCACACACATAAATTCGCATATA [CACACA_site1866]	9.95 ± 0.11
ACAAAATAATTGTTTACACACCCATTTGTAATTTTA [CACACA_site3615]	9.93 ± 0.099
ATGGACAAGTTAAACGCACACAAATATATACAGACA [CACACA_site1652]	10.5 ± 0.31
TAATATGAAATGTGTACACACGCACCCACAAAAAAA [CACACA_site8949]	11.8 ± 0.93
GTTTATGTATTATTATGTACGTATCATAATATATAT [XGTACX_site2385]	11.5 ± 0.82
TAATTTCCTTAAGAATGTACTTACATTTTATTATTT [XGTACX_site5998]	11.1 ± 0.63
TTTTTATTATTTAAATGTACATATAAATATATATAT [XGTACX_site6870]	11.2 ± 0.71
ATGTTTTTAATTTATTGTACATTAATTTGTATTATT [XGTACX_site253]	11 ± 0.67
TTTTCTTTTCTCTTCTTTTTCTCCCATTATTAATCT [XGTACX_negctrl_site406]	9.72 ± 0.18
GAGGATGCCTATGGCACACATTATAAAACTGTCGCT [CACACA_site4322]	10.04 ± 0.014
AAGAAGAAACGGAAAAGTACAAAGAAGAAATAAGTA [XGTACX_site3680]	11.1 ± 0.67
CTTACAGACATATATACACACATGTATATTTTATAT [CACACA_site549]	10.02 ± 0.085
AGAAATATCTAATTGTGTACTCAAGAAAAAGTTACG [XGTACX_site372]	11.5 ± 0.93
CATAAAATTGTGAAGTGTACATATTTTTAAATATAA [XGTACX_site8986]	11.5 ± 0.76
ATAACTTTATTTTCCTGTACACACATTTGACATATT [XGTACX_site7192]	11.4 ± 0.73
ATATATAATATAAGATGTACAATAAAATCTATATAT [XGTACX_site546]	11.1 ± 0.63
